Data reported in PubChem BioAssay AID504332 (National Center for Advancing Translational Sciences (NCATS), 2011).
The whole screen tested about 350,000 compounds, of which about 31,000 (8.9%) were called active. Inconclusive results, whose numbers are uncertain, are shown with a selection of clear calls. The call rests on the fitted dose curve; in most records, active means well fitted inhibition curve with a large enough effect; inconclusive means small, poorly fitted or top-dose-only effect; inactive means no such curve, though single readings can be large or run the other way. Potencies of inconclusive entries are doubtful fits and often do not repeat.

Target: Histone-lysine N-methyltransferase EHMT2 (Homo sapiens) (UniProt Q96KQ7)
Experiment: qHTS Assay for Inhibitors of Histone Lysine Methyltransferase G9a; further: nearly all actives have a fitted effect of over 75% in size
Conditions: G9a H3K9 monomethylation, AlphaScreen, 2 h; activity, negative = inhibition: at 59 µM (top of the series) unless noted
Procedure, shortened: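 Quantitative HTS format: methyltransferase activity on a biotin-tagged H3K9 peptide is measured by AlphaScreen, using a rabbit anti-monomethyl-H3K9 antibody with streptavidin donor and anti-IgG acceptor beads. Final levels are 20 nM enzyme, 500 nM peptide, 20 uM SAM; 2 h RT.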
On the % scale 0 is the no-effect control and ±100 the full control effect; potency means the concentration at half of the fitted maximal effect; tags describe the fitted curve by direction and shape.

UniProt Q96KQ7, sequence (Q96KQ7 whole entry, looked up): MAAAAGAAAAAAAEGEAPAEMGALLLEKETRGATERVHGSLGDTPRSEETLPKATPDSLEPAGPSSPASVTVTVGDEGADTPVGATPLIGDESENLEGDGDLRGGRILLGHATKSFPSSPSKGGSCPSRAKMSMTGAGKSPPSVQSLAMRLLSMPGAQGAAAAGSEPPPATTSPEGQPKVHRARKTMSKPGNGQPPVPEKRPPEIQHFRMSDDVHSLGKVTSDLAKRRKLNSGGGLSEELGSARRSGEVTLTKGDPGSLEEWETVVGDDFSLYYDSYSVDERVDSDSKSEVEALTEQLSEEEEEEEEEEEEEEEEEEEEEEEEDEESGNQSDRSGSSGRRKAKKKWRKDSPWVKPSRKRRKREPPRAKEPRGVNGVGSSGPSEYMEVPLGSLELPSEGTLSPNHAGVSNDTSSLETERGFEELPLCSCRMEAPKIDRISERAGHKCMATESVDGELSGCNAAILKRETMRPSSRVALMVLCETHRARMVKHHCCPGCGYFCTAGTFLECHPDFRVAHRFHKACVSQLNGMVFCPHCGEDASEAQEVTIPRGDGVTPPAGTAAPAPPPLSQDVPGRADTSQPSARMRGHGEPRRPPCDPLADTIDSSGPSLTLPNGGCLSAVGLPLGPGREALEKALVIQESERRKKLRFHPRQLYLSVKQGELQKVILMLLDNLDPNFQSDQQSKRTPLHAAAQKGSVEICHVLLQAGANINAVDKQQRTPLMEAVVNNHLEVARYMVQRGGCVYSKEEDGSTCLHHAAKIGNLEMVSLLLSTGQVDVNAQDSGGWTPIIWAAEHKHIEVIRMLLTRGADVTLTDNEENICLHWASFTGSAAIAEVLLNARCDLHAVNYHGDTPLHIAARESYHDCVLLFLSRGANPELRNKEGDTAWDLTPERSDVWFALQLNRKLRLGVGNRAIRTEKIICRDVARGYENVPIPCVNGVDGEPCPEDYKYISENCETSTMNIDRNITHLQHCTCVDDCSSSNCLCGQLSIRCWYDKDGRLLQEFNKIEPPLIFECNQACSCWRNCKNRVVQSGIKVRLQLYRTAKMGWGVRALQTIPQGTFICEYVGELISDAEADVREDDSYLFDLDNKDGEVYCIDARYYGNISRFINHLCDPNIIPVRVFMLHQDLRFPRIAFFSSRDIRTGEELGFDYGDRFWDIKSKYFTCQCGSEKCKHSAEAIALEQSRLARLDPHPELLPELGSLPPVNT

Row | SMILES | Potency | activity, negative = inhibition
1 | CC(C)Cc1nnc(NC(=O)CSc2nc(O)c(-c3ccccc3)c(=O)[nH]2)s1 | inconclusive: 79.4 µM [inhibitor, partial curve, poor fit] | –
2 | CCOc1ccc(C(C)=O)cc1N1C(=O)C2C3C=CC(O3)C2C1=O (stereo unspecified) | inconclusive: 0.708 µM [inhibitor, full curve, poor fit] | –
3 | Cc1cccc(N2CCN(c3ccc4cc(S(=O)(=O)N5CCCCC5)ccc4n3)CC2)c1C | inconclusive: 79.4 µM [inhibitor, single point] | –
4 | COCCn1c(SCC(=O)NC2CCCC2)nnc1-c1ccco1 | – | inactive: -21.1% [at 102 µM]
5 | CC(=O)Nc1cc(C(=O)NCc2ccccc2Cl)ccc1Sc1ccc(F)cc1 | – | inactive: 8.33%
6 | CN(C(=O)COC(=O)c1ccc2c(c1)NC(=O)CS2)C1CCS(=O)(=O)C1 (stereo unspecified) | active: 50.1 µM | –
7 | CCCN(CC1CC1)C(=S)Nc1ccccc1F | – | inconclusive: -71.5% [inhibitor]
8 | N#CCCN1CCN(S(=O)(=O)c2ccc(S(=O)(=O)NCC3CCCO3)cc2)CC1 (stereo unspecified) | – | inactive: 1.17%
9 | COc1cc2c(cc1OC)C1=CC(=O)C(=O)N1C(C)(C)C2 | inconclusive: 56.2 µM [inhibitor, partial curve, poor fit] | –
10 | CC(C(=O)NC1CCCC1)N(Cc1ccco1)C(=O)c1snc(C(=O)NC2CCCC2)c1N (stereo unspecified) | inconclusive: 50.1 µM [inhibitor, partial curve, poor fit] | –
11 | Cc1cc(C)c(S(=O)(=O)Nc2cc(SCC(=O)O)c(O)c3ccccc23)cc1C | active: 2.24 µM | –
12 | OC(CN1CCN(c2ncc(C(F)(F)F)cc2Cl)CC1)c1ccccc1 (stereo unspecified) | inconclusive: 89.1 µM [inhibitor, single point] | –
13 | O=C(Nc1ccccc1)c1ccc(-c2ccc(Br)cc2)o1 | inconclusive: 39.8 µM [inhibitor, single point] | –
14 | COc1ccc(N2CCN(C(c3cccs3)C(C)NS(=O)(=O)c3ccccc3)CC2)cc1 (stereo unspecified) | – | inconclusive: -112% [inhibitor]
15 | CN(C)C1(CNC(=O)C2CCN(S(=O)(=O)c3c(Cl)cccc3Cl)CC2)CCCCC1 | – | inactive: -28.3% [at 102 µM]
16 | CCOC(=O)c1ccc(Oc2nc(NC(C)(C)C)nc(N(C)C)n2)cc1 | inconclusive: 89.1 µM [inhibitor, single point] | –
17 | Cn1ccnc1SCC(=O)NC12CC3CC(CC(C3)C1)C2 | inconclusive: 3.98 µM [inhibitor, partial curve, poor fit] | –
18 | COc1ccc2c(c1)CC(C(=O)NCc1ccc(F)cc1)CO2 (stereo unspecified) | – | inactive: -0.748%
19 | Cc1cc(C)nc(NS(=O)(=O)c2ccc(NC(=O)CN3C(=O)c4ccccc4C3=O)cc2)n1 | inconclusive: 89.1 µM [inhibitor, partial curve, poor fit] | –
20 | COCCN(C(=O)CSc1nc2ccccc2o1)c1c(N)n(Cc2ccccc2)c(=O)[nH]c1=O | inconclusive: 4.47 µM [inhibitor, single point] | –
21 | CC(=O)N1CN(C2CCCC2)Cc2c1sc1c2CCCC1 | inconclusive: 31.6 µM [inhibitor, partial curve] | –
22 | COc1ccc(C2=CC(=O)CC(C)(C)C2)cc1OC | – | inactive: 0.349% [at 0.501 µM]
23 | Cc1ccc(C(=O)NCCCn2ccnc2)cn1 | – | inactive: -5.5% [at 102 µM]
24 | COC(=O)Cn1c2c(c3cc(C)ccc31)CCCC2 | inconclusive: 31.6 µM [inhibitor, single point] | –

Row | SMILES | Potency | activity, negative = inhibition
25 | Cc1ccc(C(=O)Nc2c(C(=O)NC(C)(C)C)oc3ccccc23)cc1 | – | inactive: 10.2%
26 | CSC1=C(C#N)C(c2cccs2)CC(=O)N1C (stereo unspecified) | inconclusive: 31.6 µM [inhibitor, single point] | –
27 | COc1ccc(OC)c(NC(=O)NNC(=O)c2cc3occc3[nH]2)c1 | active: 50.1 µM | –
28 | CCn1c(Cc2ccccc2)nnc1SCC(=O)Nc1ccccc1O | inconclusive: 89.1 µM [inhibitor, single point] | –
29 | S=C(NCCc1c[nH]c2ccccc12)NC1CCCCC1 | – | inactive: 22.1%
30 | Nc1c(N(CCO)C(=O)COc2ccc(Cl)cc2)c(=O)[nH]c(=O)n1Cc1ccccc1 | inconclusive: 0.562 µM [inhibitor, partial curve, poor fit] | –
31 | Cc1cc(C)cc(OCC(O)CN2CCC(CN3C(=O)c4cccc5cccc(c45)C3=O)CC2)c1 (stereo unspecified) | – | inactive: 8.2% [at 0.501 µM]
32 | COc1ccc(C(=O)Nc2cc3c(oc2=O)CCCC3=O)cc1 | active: 50.1 µM | –
33 | CCOC(=O)c1sc2nc(N3CCCC3)c3c(c2c1N)CC(C)(C)OC3 | inconclusive: 79.4 µM [inhibitor, single point] | –
34 | CCOC(=O)C1=C(C)N=c2s/c(=C3\C(=O)Nc4ccccc43)c(=O)n2C1c1ccc2c(c1)OCO2 (stereo unspecified) | inconclusive: 1 µM [inhibitor, full curve, poor fit] | –
35 | Cn1cccc1Cc1nnc(SCC(=O)Nc2ccc3c(c2)OCCO3)n1CCc1ccccc1 | active: 44.7 µM | –
36 | COc1ccc(-c2csc(Nc3ccccn3)n2)cc1OC | active: 50.1 µM | –
37 | CN(C(=O)COC(=O)c1nc(Cl)c(Cl)c(Cl)c1Cl)C1CCS(=O)(=O)C1 (stereo unspecified) | inconclusive: 44.7 µM [inhibitor, partial curve] | –
38 | Cc1ccc(-n2nc(C)c3nc(CCC(=O)Nc4cccc(C)c4C)c(=O)n(C)c32)cc1 | – | inactive: -4.24% [at 12.7 µM]
39 | Cc1cc(C)c2c(CC(=O)Nc3ccc(F)cc3)coc2c1 | – | inactive: -1.87%
40 | Cc1cccc(CNc2ncc(-c3cccc([N+](=O)[O-])c3)n2C)c1 | active: 44.7 µM | –
41 | CCOC(=O)c1ccc(NC(=O)CSc2c(C(C)C)cnc3c2c(=O)n(C)c(=O)n3C)cc1 | inconclusive: 39.8 µM [inhibitor, single point] | –
42 | CC(=O)Nc1ccc2nc(-c3ccccn3)[nH]c2c1 | inconclusive: 39.8 µM [inhibitor, partial curve, poor fit] | –
43 | CCOC(=O)c1sc2nc(CSc3nc4ccccc4n3CC)[nH]c(=O)c2c1C | – | inactive: 12.7%
44 | O=C1CN(C(=O)NCC(=O)N[C@H](Cc2ccccc2)C(=O)O)c2ccccc2N1 | inconclusive: 100 µM [inhibitor, single point] | –
45 | Cc1ccc(S(=O)(=O)Nc2c(Cl)c(Cl)c(O)c3ccccc23)cc1 | active: 1.26 µM | –
46 | COc1cc2nc(N(C)CCCNC(=O)[C@@H]3CCCO3)nc(N)c2cc1OC | – | inactive: 10.6% [at 21.5 µM]
47 | O=C(CSc1nc2ccccc2nc1Cc1ccc(Cl)cc1)N1CCc2ccccc21 | – | inactive: 10.5%
48 | Cc1c2cnn(-c3ccccc3)c(=O)c2c(C)n1CCCC(=O)Nc1cc(F)ccc1F | – | inactive: 2.16%

Row | SMILES | Potency | activity, negative = inhibition
49 | COC(=O)c1nc2n(n1)C(c1cccc(Cl)c1)C(C(=O)Nc1ccccc1OC)=C(C)N2 (stereo unspecified) | – | inactive: -38.6%
50 | O=C(N/N=C/c1ccccc1F)c1cc2c(ccc3ccccc32)o1 | inconclusive: 89.1 µM [inhibitor, single point] | –
51 | CCCCc1nc2ccn(CC(=O)N(C)C)c(=O)c2n1Cc1ccc(-c2ccccc2-c2nn[nH]n2)cc1 | – | inactive: -8.94%
52 | O=C(N[C@@H](Cc1ccccc1)C(=O)NC1CC1)c1ccc(Cl)cc1 | – | inactive: 11.4% [at 102 µM]
53 | CCCn1c(SCc2ccc(Cl)cc2)nc2c1c(=O)[nH]c(=O)n2C | active: 50.1 µM | –
54 | CCN(CC(=O)Nc1ccccc1OC)CC(=O)Nc1ccccc1-c1ccccc1 | active: 50.1 µM | –
55 | CCCCOCCCn1c(-c2ccco2)nc2nc3ccccc3nc21 | inconclusive: 56.2 µM [inhibitor, partial curve, poor fit] | –
56 | NC(N)=NS(=O)(=O)c1ccc(NC(=S)NC(=O)c2ccc(Br)cc2)cc1 | – | inactive: -43% [at 102 µM]
57 | Cc1c(C(=O)c2ccc(Cl)c([N+](=O)[O-])c2)c2ccccn2c1CCC#N | inconclusive: 39.8 µM [inhibitor, single point] | –
58 | O=C(Nc1ccc(S(=O)(=O)N2CCCCCC2)cc1)c1ccco1 | inconclusive: 10 µM [inhibitor, partial curve] | –
59 | CCCN(CCC)C(=O)CC(c1ccccc1)c1ccc(C)cc1O (stereo unspecified) | inconclusive: 44.7 µM [inhibitor, partial curve] | –
60 | COc1ccc(C)cc1NC(=O)c1oc2ccc(S(=O)(=O)N3CCCCC3)cc2c1C | – | inactive: -16.8%
61 | O=C(Nc1cccc(-c2cnc3ccccc3n2)c1)c1cccc(NC(=O)c2ccco2)c1 | inconclusive: 15.8 µM [inhibitor, partial curve, poor fit] | –
62 | C[C@H]1[C@H](C)CC[C@]2(C)CC[C@]3(C)C(=CC(=O)C4[C@@]5(C)CC[C@H](O)C(C)(C)C5CC[C@]43C)[C@H]12 (stereo partly specified) | – | inactive: 25% [at 2.33 µM]
63 | NC(=O)c1c(NC(=O)c2nc(SCc3ccccc3F)ncc2Cl)sc2c1CCCC2 | inconclusive: 7.08 µM [inhibitor, single point] | –
64 | O=C(COC(=O)Cn1cnc2ccccc2c1=O)Nc1ccc2c(c1)OCO2 | inconclusive: 10 µM [inhibitor, partial curve, poor fit] | –
65 | COc1ccccc1-n1nnnc1SCC(=O)NC1CCCC1 | – | inactive: 8.48% [at 12.7 µM]
66 | CCOCC(=O)N1CCN(c2cccc(Cl)c2)CC1 | inconclusive: 1 µM [inhibitor, partial curve, poor fit] | –
67 | CC(C)OC(=O)c1cc(-c2ccc(C=O)o2)ccc1Cl | inconclusive: 22.4 µM [inhibitor, single point] | –
68 | CC1=CCC2C(=O)N(c3ccc(C(=O)N4CCCCCC4)cc3)C(=O)C2C1 (stereo unspecified) | – | inactive: 7.14% [at 102 µM]
69 | O=C(C1CCN(S(=O)(=O)c2ccc(Br)s2)CC1)N1CCN(c2cccc(Cl)c2)CC1 | – | inactive: 2.82%
70 | Cc1ccc(Sc2c(C)nn(C(=O)COc3ccccc3Br)c2C)cc1 | – | inactive: -5.03%
71 | Cc1ccc(N2CC(C(=O)Nc3nc4ccc(S(C)(=O)=O)cc4s3)CC2=O)cc1C (stereo unspecified) | inconclusive: 79.4 µM [inhibitor, partial curve, poor fit] | –
